# ± gives the standard error. Variants at the background level are over-represented here.
# B1: glmS ribozyme (parent)
# chain: AUAAAAGCGCCAGAACUACAGAAAUGUAGUUGACGAGGAGGAGGUUUAUCGAAUUUUCGGCGGAUGCCUCCAAA
# Variants of: B1
# Assay: self-cleavage kobs at 10000 uM GlcN6P; higher = faster cleavage; RNA array
# Conditions: with glucosamine-6-phosphate
# Summary of the method: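 Glucosamine-6-phosphate in HEPES/KCl/Mg(OAc)2 buffer, at 40 μM to 10 mM, was flowed over barcoded ribozyme variants transcribed in situ by E. coli RNA polymerase on sequenced MiSeq chips. Tracking was through a hybridised Cy3 probe at 37 °C. kobs, kcat and KM came from exponential decay fits and weighted Michaelis–Menten fits of normalised per-tile medians.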
row,Variant,self-cleavage kobs at 10000 uM GlcN6P [s⁻¹]
1,AUAAAAGCGCCAGAACUACAGAAAUGUAGUUGACGAGUAGUAGGUUUAUCGAAUUUUCGGCGGAUGCGUCCAAA,< 1e-05
2,AUAAAAGCGCCAGAACUACAGAAAUGUAGUUGACGAGGAUAAGGUUGAUCGUAUUUUCGGCGGAAGCCUUCAAA,< 1e-05
3,AUAAAAGCGCCAGAACUACAGAAAUGUAGUUGACGAGGAGGAGCUUUAUAGAAUUUUCGGCAGAUGCCUCCAAA,< 1e-05
4,AUAAAAGCGCCAGAACUACAGAAAUGUAGUUGACGAGGAGGAAGUUUAUCGAAUUUCCUGCGGUUGCCUCCAAA,< 1e-05
5,AUAAAAGCGCCAGAACUACAGAAAUGUAGUUGUCGAGGAAUAGGUUUAUCGAAUUUUCUGCGGAUGCCUCCAAA,< 1e-05
6,AUAAAAGCGCCAGAACUACAGAAAUGUAGUUGACGAUCACGCGGUUUAUCGAAUUUUCGGCGGAUCCCUCCAAA,< 1e-05
7,AUAAAAGCGCCAGAACUACAGAAAUGUAGUUGACGAGUAGGAGGUUUAUCGAAUUUUCGGUGGUUGCCUCCAAA,< 1e-05
8,AUAAAAGCGCCAGAACUACAGAAAUGUAGUUGGCGAGGAGGAUGUUUAUCGAAUUUUCGGCGGAUGCUUCCAAA,< 1e-05
9,AUAAAAGCGCCAGAACUACAGAAAUGUAGUUGACGAGGAUCAGGUUUAUUGAAUUUUCGGCGGAUGCCUCCAAA,< 1e-05
10,AUAAAAGCGCCAGAACUACAGAAAUGUAGUUGACGCGGAGGUGGUUUAUCGAAUUAUUGGCGGGUGCCUCCAAA,< 1e-05
11,AUAAAAGCGCCAGAACUACAGAAAUGUAGUUGAAGAGGAGGAGAUUGAUCGAAUUUUCGACGGAUGCCUCCAAA,< 1e-05
12,AUAAAAGCGCCAGAACUACAGAAAUGUAGUUGACGAGGGGGAGGUUUAUCUAAUUUUCGGCGGAUGCCUCUAAA,< 1e-05
13,AUAAAAGCGCCAGAACUACAGAAAUGUAGUUGACGAGGAGGAAGUUUAUCUAAUUUUCGGCGGAUGGCUGCAAA,< 1e-05
14,AUAAAAGCGCCAGAACUACAGAAAUGUAGUUGACGAGGAGGAAGCAUAUCGAAUUUUCGGCGGUUGCCUCCAAA,< 1e-05
15,AUAAAAGCGCCAGAACUACAGAAAUGUAGUUGACUACGAGGAGGUUUAUCGAAUUUUCGGCGUUUGCCUCCAAA,< 1e-05
16,AUAAAAGCGCCAGAACUACAGAAAUGUAGUUGACGAGGCUGAGGUUUAUUGAAUUUUCGGCGGAUGCAUCCAAA,< 1e-05
17,AUAAAAGCGCCAGAACUACAGAAAUGUAGUAGACGAGGAGGAGGUUUAUCGAAUUUGCGGCGGAUGCCUCCAAA,3.33e-05 ± 1.1e-05
18,AUAAAAGCGCCAGAACUACAGAAAUGUAGUUUACGAGGAUGCGGUUUAUCGAGUUUUCGGCGGAUGCCUCGAAA,< 1e-05
19,AUAAAAGCGCCAGAACUACAGAAAUGUAGUUGACGAGGCGCAGGUUUAUCGAAUUGUUGGCCAAUGCCUCCAAA,< 1e-05
20,AUAAAAGCGCCAGAACUACAGAAAUGUAGUUGACGAGGAGUAGGUUUAUCGAAUUUCCGGCGGCUGCCUCCAAA,< 1e-05
21,AUAAAAGCGCCAGAACUACAGAAAUGUAGUUGACGAGAAGGAGGUUUAUUGAAUUUUCGCCGGAUGCAUCCAAA,< 1e-05
22,AUAAAAGCGCCAGAACUACAGAAAUGUAGUCGACGAGGAGGAGGUUUAUCGUAUUUUCGGCGUAUGCCGCCAAA,< 1e-05
23,AUAAAAGCGCCAGAACUACAGAAAUGUAGUUGACGACGAGGACGUUUAUCGAAUUUUCGGCGGAAGCCUCCAAA,< 1e-05
24,AUAAAAGCGCCAGAACUACAGAAAUGUAGUUGACGAGGUGCAGGUUUAACGAAUUUUCGGUGGAUGCCUCCAAA,< 1e-05
25,AUAAAAGCGCCAGAACUACAGAAAUGUAGUUGACGCGGAGGAGAUUUAUCGAAUUUUCGGCGGAUUCCUCCAAA,< 1e-05

row,Variant,self-cleavage kobs at 10000 uM GlcN6P [s⁻¹]
1,AUAAAAGCGCCAGAACUACAGAAAUGUAGUUGACGAGAAGGAGGUUUAUCGGAUGUUCGGCGGAUGCCUCCAAA,< 1e-05
2,AUAAAAGCGCCAGAACUACAGAAAUGUAGUUGACGAGGAUGAGGUUUGUCGAAUUUACGGCGGAUUUCUCCAAA,< 1e-05
3,AUAAAAGCGCCAGAACUACAGAAAUGUAGUUAACGAGGAGGAGGUUAAUCUAAUUUUCGGCGGAUGCCUCCAAA,< 1e-05
4,AUAAAAGCGCCAGAACUACAGAAAUGUAGUUGACGAAGAGGAGGUUUUUCUAAUUUUCGGCGGAUGCUUCCAAA,< 1e-05
5,AUAAAAGCGCCAGAACUACAGAAAUGUAGUUUACGAGGAGGAGGUUUUUCAAAUUUUCGGCGGAUGACUCCAAA,< 1e-05
6,AUAAAAGCGCCAGAACUACAGAAAUGUAGUUGACGAGGAGGAGGCUUAUCGAAUUUUCGGCGGAGGACUCCAAA,0.000786 ± 0.00016
7,AUAAAAGCGCCAGAACUACAGAAAUGUAGUUGCCGAGGAGGAGGUUUAUCGAAUUUUCGGCGGAUGCGUCAAAA,< 1e-05
8,AUAAAAGCGCCAGAACUACAGAAAUGUAGUUGACUAGGAGGAGGUUUAUCGAAUGUUCGGCGGAUGCCUCCAAA,< 1e-05
9,AUAAAAGCGCCAGAACUACAGAAAUGUAGUUGACGAGGAGAAGGUUUAUCGAAUUUUCGGCGGAUACUUCCAAA,3.05e-05 ± 1.3e-05
10,AUAAAAGCGCCAGAACUACAGAAAUGUAGUUGAAGAGGAGGAGGUUUAUCGAAUUUUCGGCGGGUGCCCCCAAA,< 1e-05
11,AUAAAAGCGCCAGAACUACAGAAAUGUAGUUGCCGAGGCGGAGGUUUAUCGAAUUUUCGGCGGCUGCCUCCAAA,< 1e-05
12,AUAAAAGCGCCAGAACUACAGAAAUGUAGUUGACGAGGAGGCGGUUUAUCGAAUUUGCGGCGGAUGCCUGCAAA,< 1e-05
13,AUAAAAGCGCCAGAACUACAGAAAUGUAGUUGACGACGAGGAGGGUUAUCGAAUUUUCGGCGGCUGCCUCCAAA,< 1e-05
14,AUAAAAGCGCCAGAACUACAGAAAUGUAGUUGACGAGGAGGCGGUUUAUUGAAUUUUCGGCGGAUGCAUACAAA,< 1e-05
15,AUAAAAGCGCCAGAACUACAGAAAUGUAGUUGACGAAGAGGAGGUUUAGCGAAUUUUCGGCGGAUGGCUCCAAA,< 1e-05
16,AUAAAAGCGCCAGAACUACAGAAAUGUAGUUGACGAGGACGAUGUUUAUCUAAUUUUCGGCGGAUGCCUCCAAA,< 1e-05
17,AUAAAAGCGCCAGAACUACAGAAAUGUAGUUGACGAGUAUCAGGUUUAUCGAAUAUUCGGCGGAUGCCUCCAAA,< 1e-05
18,AUAAAAGCGCCAGAACUACAGAAAUGUAGUUGACGAGGAGGAUGUUUAUCCAAUUUUCGGCGGAGGCCCCCAAA,< 1e-05
19,AUAAAAGCGCCAGAACUACAGAAAUGUAGUUGACGAGCAGGAGGUUUACCGAAUUUUCGGCGGAUGCCGCCAAA,< 1e-05
20,AUAAAAGCGCCAGAACUACAGAAAUGUAGUUGACGGUGAGGAGGUUUAUCGAAUUUUCGGCGUAUGCCUCCAAA,< 1e-05
21,AUAAAAGCGCCAGAACUACAGAAAUGUAGUUGACGAGGAGGCGGCUUAUCGAAUUUUCGGCGGAUGCCUCCAAA,< 1e-05
22,AUAAAAGCGCCAGAACUACAGAAAUGUAGUUGACGAGGCGUAGGUUUAUUGAAUUGGCGGCGGAUGCCUCCAAA,< 1e-05
23,AUAAAAGCGCCAGAACUACAGAAAUGUAGUUGACGAGCUGGAGGUUUAUCGUAUUUUCGGCGGAUGCCUCCAAA,< 1e-05
24,AUAAAAGCGCCAGAACUACAGAAAUGUAGUUCACGUGGAGGAGGUUUAUCGAAUUUUUGGCGGAUGCCUCCAAA,< 1e-05
25,AUAAAAGCGCCAGAACUACAGAAAUGUAGUUGACAUGGAGGAGGUUUUUCGAAUUUUCGGCGGAUGCCUCAAAA,< 1e-05

row,Variant,self-cleavage kobs at 10000 uM GlcN6P [s⁻¹]
1,AUAAAAGCGCCAGAACUACAGAAAUGUAGUUGACGAGGUGGAGGUUUGUAGAAUUUACGGCGGAUGCCUACAAA,< 1e-05
2,AUAAAAGCGCCAGAACUACAGAAAUGUAGUUGAUGAGGAGGUGGUUUAGAGAAUUUUCGGCGGAUGCCUCCAAA,< 1e-05
3,AUAAAAGCGCCAGAACUACAGAAAUGUAGUUGAUGAGGAGGAGGUUUAUCGAAUUUUCGGCGGUUGCCUCUAAA,< 1e-05
4,AUAAAAGCGCCAGAACUACAGAAAUGUAGUUGGCGAGGAGUAGGUUUAUCGAAUUUUCGGCGGAUGCCUCUAAA,< 1e-05
5,AUAAAAGCGCCAGAACUACAGAAAUGUAGUUGACGCUCAGGAGGUUUAUCGAAUUUUCGGCGGAUGCCUCCAAA,< 1e-05
6,AUAAAAGCGCCAGAACUACAGAAAUGUAGUUGACGAUGAGGAGGUUUAUCGAAUUUUCGGCGGAUGACUCCAAA,< 1e-05
7,AUAAAAGCGCCAGAACUACAGAAAUGUAGUUGACGAGGAGGACGUUUAUCGGAUUUUCGGCGGAAGCCUCCAAA,< 1e-05
8,AUAAAAGCGCCAGAACUACAGAAAUGUAGUUGUCGAGGCGGAGGUUUCUCGAAUUUUCGGCGGAUGCCUCCAAA,< 1e-05
9,AUAAAAGCGCCAGAACUACAGAAAUGUAGUUGCCGAGGAGGAGCUUUAUCCAAUUUUCGGCGCAUGCCUCCAAA,< 1e-05
10,AUAAAAGCGCCAGAACUACAGAAAUGUAGUUGACGAGAAGGAGGUUUAUCGAAUUUUCCGUGGAUGCCUCCAAA,< 1e-05
11,AUAAAAGCGCCAGAACUACAGAAAUGUAGUUGAAGAGGAGGCGGUUUAUCGAAUUUUCGGCGGAAGCCUCCAAA,< 1e-05
12,AUAAAAGCGCCAGAACUACAGAAAUGUAGUUGACGAGGAGCAGGUUUAUCGAAUUUUCGGCGGAUCCAUCCAAA,< 1e-05
13,AUAAAAGCGCCAGAACUACAGAAAUGUAGUUGACGCGGAGGAGGUAUAUCGAUUUUUCGGCGGAUGCCUCCAAA,< 1e-05
14,AUAAAAGCGCCAGAACUACAGAAAUGUAGUUGACGAGGAGGCGGUUUAUCAAAUUUUCGGCGAAUGCCUCCAAA,< 1e-05
15,AUAAAAGCGCCAGAACUACAGAAAUGUAGUUGGCGAUGAGGAGGUUUAUCGAUUUUCCGGCGGAUGCCUCCAAA,< 1e-05
16,AUAAAAGCGCCAGAACUACAGAAAUGUAGUUGACGAGAAGGAGGUUUAUCGAAUUUUAGGCGGAUGCCUCCAAA,< 1e-05
17,AUAAAAGCGCCAGAACUACAGAAAUGUAGUUGAGGAGGAGGAGGUUUUUCGAAUUUUCGGCGGAUGCCUCCAAA,< 1e-05
18,AUAAAAGCGCCAGAACUACAGAAAUGUAGUUGCCGGGGAGGAGGUUGAUCAAAUUUUCGGCGGAUGCCUCCAAA,< 1e-05
19,AUAAAAGCGCCAGAACUACAGAAAUGUAGUUGACGAGUAGAAGGUUUAUCGAAUAUUCGGCGUAUGCCUCCAAA,< 1e-05
20,AUAAAAGCGCCAGAACUACAGAAAUGUAGUUGACGAGGAAGAGGUUUAUCGAAUUUUCGUCGGAUGCUUCCAAA,< 1e-05
21,AUAAAAGCGCCAGAACUACAGAAAUGUAGUUGCCGAGGAGGAGGCUUAGCGAAUUUUCGGCGGAUACCUCCAAA,< 1e-05
22,AUAAAAGCGCCAGAACUACAGAAAUGUAGUUUACGAGGAGGAGUUUUAUCGAAUUUUCGGGGGAUGCCUCCAAA,< 1e-05
23,AUAAAAGCGCCAGAACUACAGAAAUGUAGUUGACGAGGAAGAGGUUUACCGAAUUUUCGGCGGAUGGUUCCAAA,< 1e-05
24,AUAAAAGCGCCAGAACUACAGAAAUGUAGUUGAUGAGGAGGAGGUUUAUCGAAUUUUCUGCGCAUGCCUCCAAA,< 1e-05
